Source: PubChem BioAssay AID1457 (National Center for Advancing Translational Sciences (NCATS), 2008)
About 730 (0.35%) of roughly 210,000 compounds were called active. This list was built around the results that the source calls inconclusive (neither active nor inactive); the mix of calls is not that of the screen. Calls come from the whole dose curve; as a rule, active = well fitted inhibition curve with a large enough effect; inconclusive = small, poorly fitted or top-dose-only effect; inactive = no such curve, though single readings can be large or run the other way. A potency beside an inconclusive call is a rough fit, not a confirmed value.

Test: qHTS Assay for Identifying the Cell-Membrane Permeable IMPase Inhibitors: Potentiation with Lithium; note: nearly all actives have a fitted effect of over 50% in size
Settings: CHO-M1 cells, IP1 TR-FRET (IP-One), carbachol + lithium; series mostly up to 59.4 µM
Outline: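 Test compounds were applied to CHO-M1 cells previously cultured for 16–30 h at 2000 per well. A small lithium amount accompanied them; after 30 min at 37C, IP1 was quantified by TR-FRET.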
Potency is the fitted concentration of half-maximal effect.

Question: Which Potency does the source give for Cc1ccc(NC(=O)C2CC(=O)n3ncnc3N2)cc1C (centres undefined) here?
Answer: inconclusive: 4.47 µM [inhibitor, single point]

Question: Which Potency does the source give for COc1ccc(NC(=O)c2c(C(F)(F)F)nn(C)c2Cl)cc1 here?
Answer: inconclusive: 5.01 µM [inhibitor, single point]

Question: For O=C(/C=C/c1ccco1)N/C(=C\c1ccco1)C(=O)NCCc1nc2ccccc2[nH]1, which Potency is on record?
Answer: inconclusive: 31.6 µM [inhibitor, single point]

Question: Which Potency does the source give for Cc1ccc(Oc2nc3ccccc3n3c(C)nnc23)cc1 here?
Answer: inconclusive: 12.6 µM [inhibitor, single point]

Question: For CC(=O)c1cn(CCCCCCCCCCn2cc(C(C)=O)c(=O)[nH]c2=O)c(=O)[nH]c1=O, which Potency is on record?
Answer: inconclusive: 28.2 µM [inhibitor, single point]

Question: For C=CCn1c(SCC(=O)N2CCOCC2)nc(O)cc1=O, which Potency is on record?
Answer: inconclusive: 28.2 µM [inhibitor, single point]

Question: For COc1ccccc1/C=C/C(=O)OCC(=O)Nc1c(F)cccc1F, which Potency is on record?
Answer: inactive

Question: Which Potency does the source give for Cn1ccc(=S)c2ccccc21 here?
Answer: inconclusive: 12.6 µM [inhibitor, single point]

Question: With N#Cc1c(Cl)nc(SCc2ccccc2)nc1-c1ccccc1 as the compound, how does the Potency read?
Answer: active: 2.51 µM

Question: Which Potency does the source give for CC(=O)/C(=N\Nc1ccc(Cl)cc1Cl)Sc1nnc(-c2ccccc2)n1-c1ccccc1 here?
Answer: inconclusive: 28.2 µM [inhibitor, single point]

Question: For CCCc1cc(=O)oc2c(CN3CCCC3)c(O)c(Cl)cc12, which Potency is on record?
Answer: inconclusive: 28.2 µM [inhibitor, single point]

Question: Which Potency does the source give for N#Cc1c(NC(=O)c2cc(-n3cnnc3)ccc2Cl)sc2c1CCCC2 here?
Answer: inconclusive: 17.8 µM [inhibitor, single point]

Question: With COC(=O)CSc1nc2ccccc2nc1SCC(=O)OC as the compound, how does the Potency read?
Answer: inconclusive: 15.8 µM [inhibitor, partial curve]

Question: With CCC(CC)C1=NN2C(=N)/C(=C\c3cc(C)n(-c4cccc(C)c4)c3C)C(=O)N=C2S1 as the compound, how does the Potency read?
Answer: inconclusive: 22.4 µM [inhibitor, single point]

Question: For O=C(NCCCCNC(=O)c1ccc(Cl)s1)c1ccc(Cl)s1, which Potency is on record?
Answer: inconclusive: 12.6 µM [inhibitor, single point]

Question: For Cc1ccc(C)c(C(=O)COc2ccc(C)nc2[N+](=O)[O-])c1, which Potency is on record?
Answer: inactive

Question: With Cc1ccc(NC(=O)c2c3c(nc4ccccc24)CCC3)cc1 as the compound, how does the Potency read?
Answer: inconclusive: 28.2 µM [inhibitor, single point]

Question: For CCOc1cccc(CNCCNC(=O)c2nonc2N)c1, which Potency is on record?
Answer: inconclusive: 0.316 µM [inhibitor, full curve, poor fit]

Question: Which Potency does the source give for CCc1ccccc1N(C)C(=O)CCc1nc(-c2ccc(C)cc2)no1 here?
Answer: inactive

Question: Which Potency does the source give for COc1ccc(-c2csc3ncn(-c4ccc(C)cc4)c(=O)c23)cc1OC here?
Answer: inconclusive: 28.2 µM [inhibitor, single point]

Question: Which Potency does the source give for Cc1ccc(S(=O)(=O)NC(CC(=O)N2CCOCC2)c2ccco2)cc1 (centres undefined) here?
Answer: inconclusive: 28.2 µM [inhibitor, single point]

Question: For O=C(CSc1nnc2c3ccccc3c3ccccc3c2n1)Nc1ccccc1, which Potency is on record?
Answer: inconclusive: 28.2 µM [inhibitor, single point]

Question: Which Potency does the source give for COc1ccc(C(=O)NC(=S)Nc2ccc3oc(=O)ccc3c2)cc1 here?
Answer: inactive

Question: Which Potency does the source give for CSc1nc(N2CCCC2)c2c(c1C#N)CC(C)(C)OC2 here?
Answer: inconclusive: 22.4 µM [inhibitor, single point]

Question: With Cc1ccc(Cn2c(=O)c3cccnc3n(CC(=O)Nc3cccc(C(F)(F)F)c3)c2=O)cc1 as the compound, how does the Potency read?
Answer: inconclusive: 22.4 µM [inhibitor, single point]

Question: With COCc1cc(C)nc(OCC(=O)N/N=C/c2ccc(C)o2)c1C#N as the compound, how does the Potency read?
Answer: inactive

Question: Which Potency does the source give for COc1ccc(/C(O)=C2/C(=O)C(=O)N(CCN3CCOCC3)C2c2ccc(C)cc2)cc1 (centres undefined) here?
Answer: inconclusive: 11.2 µM [inhibitor, partial curve]

Question: Which Potency does the source give for O=c1cc(-c2ccccc2)[nH]c2ccc(Cl)cc12 here?
Answer: inconclusive: 31.6 µM [inhibitor, single point]

Question: Which Potency does the source give for O=C(Nc1ccc(F)cc1)c1ccc(COc2ccccc2)cc1 here?
Answer: active: 12.6 µM

Question: For Cc1cc(C)c(COCc2cc(/C=N/O)c(C)cc2C)cc1/C=N/O, which Potency is on record?
Answer: inactive

Question: Which Potency does the source give for Cc1nn(-c2ccccc2)c2sc(-c3nnc(SCC(=O)O)o3)cc12 here?
Answer: inconclusive: 11.2 µM [inhibitor, single point]

Question: For CC(C)(C)C(=O)Nc1ccccc1C(=O)NCc1ccco1, which Potency is on record?
Answer: inactive

Question: Which Potency does the source give for CCOc1nc(NC(=O)NC(=O)c2ccccc2)nc(-c2ccccc2)n1 here?
Answer: inconclusive: 28.2 µM [inhibitor, single point]

Question: Which Potency does the source give for CN(C)c1ncc2nc(-c3cccs3)c(=O)n(-c3ccccc3)c2n1 here?
Answer: inconclusive: 12.6 µM [inhibitor, partial curve]

Question: With CCn1c(=O)cc(OCC(=O)Nc2ccc(OC)c(OC)c2)c2ccccc21 as the compound, how does the Potency read?
Answer: inactive

Question: For O=C(CSc1nnnn1-c1ccccc1)Nc1nsc(-c2ccc(Cl)cc2)n1, which Potency is on record?
Answer: inconclusive: 28.2 µM [inhibitor, single point]

Question: For COc1cc(OC)cc(-c2nc(-c3ccccc3OC)no2)c1, which Potency is on record?
Answer: inconclusive: 28.2 µM [inhibitor, single point]

Question: With COc1cc(C(=O)Nc2cccc(-c3nc4ncccc4o3)c2C)cc(OC)c1OC as the compound, how does the Potency read?
Answer: inconclusive: 28.2 µM [inhibitor, single point]

Question: With Cc1ccc(NC(=O)c2cccc(N(C)C)c2)cc1NC(=O)c1ccc(O)cc1 as the compound, how does the Potency read?
Answer: inconclusive: 0.316 µM [inhibitor, full curve, poor fit]

Question: For CC(C)C(=O)NNC(=O)CN1CCN(c2nc(-c3ccccc3)cs2)CC1, which Potency is on record?
Answer: inconclusive: 20 µM [inhibitor, single point]

Question: Which Potency does the source give for CC(C)C(=O)N(c1ccc2oc(=O)sc2c1)S(=O)(=O)c1cccs1 here?
Answer: inactive

Question: Which Potency does the source give for COc1cc(NC(=O)c2cccs2)c(C(=O)OCC(=O)NC(=O)NCc2ccccc2)cc1OC here?
Answer: inconclusive: 28.2 µM [inhibitor, single point]

Question: Which Potency does the source give for CCOC(=O)c1sc2nc(NC(=O)C3CCCCC3)sc2c1C here?
Answer: inconclusive: 20 µM [inhibitor, single point]

Question: With COc1ccnc(N2CCN(c3cccc(C(F)(F)F)c3)CC2)c1C#N as the compound, how does the Potency read?
Answer: inconclusive: 12.6 µM [inhibitor, single point]
